The supplement of paper PMC4604168 (melanoma cell lines)
The list shows a part of the results. Single values are uncertain, as repeats are few or missing.

Key:
Experiment in all cases: cell count relative to DMSO control; melanoma cells; higher = more viable cells
Conditions in all cases: library dose: standard library concentration; 72 h
SkMel28 = system: SkMel28
SkMel2 = system: SkMel2
SkMel30 = system: SkMel30
SkMel5 = system: SkMel5
UACC257 = system: UACC257
UACC62 = system: UACC62
WM115 = system: WM115
WM1716 = system: WM1716
WM1745 = system: WM1745
WM3526 = system: WM3526
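Further: cells treated in 1,536-well plates, then fixed and DAPI-stained, with nuclei counted from automated high-throughput microscope images.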

Compound	cell count (SkMel28) [%]	cell count (SkMel2) [%]	cell count (SkMel30) [%]	cell count (SkMel5) [%]	cell count (UACC257) [%]	cell count (UACC62) [%]	cell count (WM115) [%]	cell count (WM1716) [%]	cell count (WM1745) [%]	cell count (WM3526) [%]
C[As](C)SC[C@H](NC(=O)CC[C@H](N)C(=O)O)C(=O)NCC(=O)O [Darinaparsin] + CCCCCCCCCCCC1=C(O)C(=O)C=C(O)C1=O [Embelin] (first compound 2 µM, partner dose 6 µM)	99.2	78.6	87	74.9	82.5	96.6	80.4	66.3	98	80.4
Cn1cc(C2=C(c3cn(C4CCN(Cc5ccccn5)CC4)c4ccccc34)C(=O)NC2=O)c2ccccc21 [Enzastaurin] + CO[C@@H]1[C@H](N(C)C(=O)c2ccccc2)C[C@H]2O[C@]1(C)n1c3ccccc3c3c4c(c5c6ccccc6n2c5c31)C(=O)NC4 [Midostaurin] (first compound 4 µM, partner dose 0.4 µM)	51.4	52.7	47.6	45	51.4	46	45	28.4	26.7	63.5
Cn1cc(C2=C(c3cn(C4CCN(Cc5ccccn5)CC4)c4ccccc34)C(=O)NC2=O)c2ccccc21 [Enzastaurin] + C[As](C)SC[C@H](NC(=O)CC[C@H](N)C(=O)O)C(=O)NCC(=O)O [Darinaparsin] (first compound 4 µM, partner dose 2 µM)	63.7	60.4	74.1	72	72.1	57.1	83.4	69.9	52.3	77.3
C[C@]12O[C@H](C[C@]1(O)CO)n1c3ccccc3c3c4c(c5c6ccccc6n2c5c31)CNC4=O [Lestaurtinib] + Clc1ccc(Nc2nnc(Cc3ccncc3)c3ccccc23)cc1 [vatalanib] (first compound 0.02 µM, partner dose 10 µM)	58.1	72.3	70.5	56.3	62.9	61.5	60.2	98.7	71.7	80.6
Cn1cc(C2=C(c3cn(C4CCN(Cc5ccccn5)CC4)c4ccccc34)C(=O)NC2=O)c2ccccc21 [Enzastaurin] + Cn1c(Nc2ccc(C(F)(F)F)cc2)nc2cc(Oc3ccnc(-c4ncc(C(F)(F)F)[nH]4)c3)ccc21 [CHIR265] (first compound 4 µM, partner dose 0.4 µM)	33.8	43.3	70.8	32.5	70.7	44.9	33.5	48.6	45.9	53.3
N.N.[Cl][Pt][Cl] [cisplatin] + Nc1cccc2c1CN(C1CCC(=O)NC1=O)C2=O [lenalidomide] (first compound 8 µM, partner dose 5 µM)	87.8	102	94.5	117	81.3	69.7	90.7	96.8	127	104
Cn1cc(C2=C(c3cn(C4CCN(Cc5ccccn5)CC4)c4ccccc34)C(=O)NC2=O)c2ccccc21 [Enzastaurin] + CC1(C)NC(=O)N(c2ccc([N+](=O)[O-])c(C(F)(F)F)c2)C1=O [nilutamide] (first compound 4 µM, partner dose 5 µM)	81.8	58.9	119	84.3	88.1	101	126	77	50.7	69.1
C[C@]12O[C@H](C[C@]1(O)CO)n1c3ccccc3c3c4c(c5c6ccccc6n2c5c31)CNC4=O [Lestaurtinib] + C=CCNC1=C2C[C@@H](C)C[C@H](OC)[C@H](O)[C@@H](C)/C=C(\C)[C@H](OC(N)=O)[C@@H](OC)/C=C\C=C(/C)C(=O)NC(=CC1=O)C2=O [Tanespimycin] (first compound 0.02 µM, partner dose 0.01 µM)	51.2	82.2	66.9	39.5	87.4	64.9	24.9	94.6	58.9	64.9
Cn1cc(C2=C(c3cn(C4CCN(Cc5ccccn5)CC4)c4ccccc34)C(=O)NC2=O)c2ccccc21 [Enzastaurin] + Clc1ccc(Nc2nnc(Cc3ccncc3)c3ccccc23)cc1 [vatalanib] (first compound 4 µM, partner dose 10 µM)	62	60.2	72.8	55.6	60.2	52.6	97.2	66.5	69.6	86.4
C[C@]12O[C@H](C[C@]1(O)CO)n1c3ccccc3c3c4c(c5c6ccccc6n2c5c31)CNC4=O [Lestaurtinib] + Cc1nc(Nc2ncc(C(=O)Nc3c(C)cccc3Cl)s2)cc(N2CCN(CCO)CC2)n1 [dasatanib] (first compound 0.02 µM, partner dose 0.02 µM)	55.8	97.3	79.5	57.1	78	86.3	68.5	66.9	36.7	73.1
C[C@]12O[C@H](C[C@]1(O)CO)n1c3ccccc3c3c4c(c5c6ccccc6n2c5c31)CNC4=O [Lestaurtinib] + CC(=O)c1c(C)c2cnc(Nc3ccc(N4CCNCC4)cn3)nc2n(C2CCCC2)c1=O [palbociclib] (first compound 0.02 µM, partner dose 0.2 µM)	49.4	83.7	52	51.6	83.9	84.4	60	46.9	75.3	59.2
C[C@]12O[C@H](C[C@]1(O)CO)n1c3ccccc3c3c4c(c5c6ccccc6n2c5c31)CNC4=O [Lestaurtinib] + NC1(c2ccc(-c3nc4ccn5c(=O)[nH]nc5c4cc3-c3ccccc3)cc2)CCC1 [MK2206] (first compound 0.02 µM, partner dose 2 µM)	61.9	57.3	71.8	51	99.9	153	28.4	76.3	66.9	36.3
C[C@]12O[C@H](C[C@]1(O)CO)n1c3ccccc3c3c4c(c5c6ccccc6n2c5c31)CNC4=O [Lestaurtinib] + CCCCCCCCc1ccc(CCC(N)(CO)CO)cc1 [fingolimod] (first compound 0.02 µM, partner dose 10 µM)	4.24	0.405	7.16	51.3	79.1	17.7	10.3	28.3	2.24	26.6
C[As](C)SC[C@H](NC(=O)CC[C@H](N)C(=O)O)C(=O)NCC(=O)O [Darinaparsin] + OCCn1cc(-c2cnc3nnn(Cc4ccc5ncccc5c4)c3n2)cn1 [PF04217903] (first compound 2 µM, partner dose 5 µM)	101	85.2	83.9	74.1	82.3	74.7	61.1	61.5	92.8	77.5
Cn1cc(C2=C(c3cn(C4CCN(Cc5ccccn5)CC4)c4ccccc34)C(=O)NC2=O)c2ccccc21 [Enzastaurin] + O=C(CCCCCCC(=O)Nc1ccccc1)NO [vorinostat] (first compound 4 µM, partner dose 0.4 µM)	52.1	75	95.4	64	78.8	53.1	64.5	82.4	73.7	80.3
Cn1cc(C2=C(c3cn(C4CCN(Cc5ccccn5)CC4)c4ccccc34)C(=O)NC2=O)c2ccccc21 [Enzastaurin] + NC(=O)c1ccc(N(C(N)=O)c2c(F)cccc2F)nc1-c1ccc(F)cc1F [VX702] (first compound 4 µM, partner dose 2 µM)	95.6	71.5	91.6	76.7	104	69.5	102	75.1	69.8	101
Cn1cc(C2=C(c3cn(C4CCN(Cc5ccccn5)CC4)c4ccccc34)C(=O)NC2=O)c2ccccc21 [Enzastaurin] + CCCCCCCCc1ccc(CCC(N)(CO)CO)cc1 [fingolimod] (first compound 4 µM, partner dose 10 µM)	1.24	0.205	17.6	60.3	63.8	12.8	17.6	8.7	4.85	8.91
C[As](C)SC[C@H](NC(=O)CC[C@H](N)C(=O)O)C(=O)NCC(=O)O [Darinaparsin] + C[C@@H]1CCN(C(=O)CC#N)C[C@@H]1N(C)c1ncnc2[nH]ccc12 [CP690550] (first compound 2 µM, partner dose 5 µM)	79.4	86	116	64.1	87	93.2	65.7	65.3	101	70.9
Cn1cc(C2=C(c3cn(C4CCN(Cc5ccccn5)CC4)c4ccccc34)C(=O)NC2=O)c2ccccc21 [Enzastaurin] + Cn1sc(=O)n(Cc2ccccc2)c1=O [TDZD-8] (first compound 4 µM, partner dose 2 µM)	78.7	77.9	90.1	79.4	72.9	100	130	73.2	68.6	120
C[C@]12O[C@H](C[C@]1(O)CO)n1c3ccccc3c3c4c(c5c6ccccc6n2c5c31)CNC4=O [Lestaurtinib] + Nc1nc(F)nc2c1ncn2[C@@H]1O[C@H](CO)[C@@H](O)[C@@H]1O [fludarabine] (first compound 0.02 µM, partner dose 1 µM)	4.74	2.21	24.4	51.8	36.7	49.4	86.4	114	68.7	34.5
C[As](C)SC[C@H](NC(=O)CC[C@H](N)C(=O)O)C(=O)NCC(=O)O [Darinaparsin] + Cn1nnc2c(C(N)=O)ncn2c1=O [temozolomide] (first compound 2 µM, partner dose 10 µM)	48.6	89.8	65.7	49.5	70.4	63.5	76.7	55.2	100	67.9
C[C@]12O[C@H](C[C@]1(O)CO)n1c3ccccc3c3c4c(c5c6ccccc6n2c5c31)CNC4=O [Lestaurtinib] + C=C(c1ccc(C(=O)O)cc1)c1cc2c(cc1C)C(C)(C)CCC2(C)C [Bexarotene] (first compound 0.02 µM, partner dose 10 µM)	54.4	80	88.9	76.1	95.7	83.1	94.8	99.5	81	68.9
